The list shows a part of the results.
How the values were obtained:
[1] = test system: HSkMC (human skeletal muscle cells); assay: cytotoxicity call (relative viability < 0.9); settings: 10 µM
[2] = test system: HepG2; assay: cytotoxicity call (relative viability < 0.9); settings: 10 µM
[3] = test system: S. aureus RN4220; assay: growth inhibition call (relative growth <= 0.2); settings: 50 µM

Compound	cytotoxicity call [1]	cytotoxicity call [2]	growth inhibition call [3]
C[C@H]1CN([C@@H](C)CO)C(=O)c2cc(NC(=O)Nc3ccc4c(c3)OCO4)ccc2O[C@H]1CN(C)Cc1ccc(C(F)(F)F)cc1	inactive	inactive	inactive
C[C@@H]1CCCCO[C@H](CN(C)C(=O)Nc2ccc3c(c2)OCO3)[C@@H](C)CN([C@@H](C)CO)C(=O)c2cc(NC(=O)C3CCCCC3)ccc2O1	inactive	inactive	inactive
C[C@@H]1CN([C@H](C)CO)C(=O)c2cc(NS(=O)(=O)c3ccc(F)cc3)ccc2O[C@@H]1CN(C)Cc1ccc(Oc2ccccc2)cc1	active	active	inactive
C[C@H]1CN([C@@H](C)CO)C(=O)c2cccc(NC(=O)Nc3ccc4c(c3)OCO4)c2O[C@H]1CN(C)C(=O)Nc1cccc2ccccc12	inactive	inactive	inactive
NCc1nncn1-c1ccccc1	inactive	inactive	inactive
O=C1O[C@@H](c2ccccc2)[C@@H](c2ccccc2)N2[C@@H](c3ccc(O)cc3)[C@]3(C(=O)Nc4ccc(C#CC5=CCCCC5)cc43)[C@@H](C(=O)Nc3nc4ccccc4s3)[C@H]12	inactive	inactive	inactive
C[C@@H]1CN([C@@H](C)CO)C(=O)c2cccc(NS(=O)(=O)c3ccccc3)c2O[C@@H]1CN(C)S(C)(=O)=O	inactive	inactive	inactive
C[C@@H]1CN([C@@H](C)CO)C(=O)Cc2cc(NS(=O)(=O)c3ccccc3)ccc2O[C@H]1CN(C)Cc1ccncc1	inactive	inactive	inactive
CC12CCC3c4ccc(O)cc4CCC3C1CCC2O (stereo not drawn)	inactive	inactive	inactive
C[C@H]1CN([C@@H](C)CO)C(=O)c2cc(NC(=O)Cn3cnnn3)ccc2O[C@@H]1CN(C)C(=O)Nc1ccc(C(F)(F)F)cc1	inactive	inactive	inactive
NCc1nc(CCc2ccccc2)cs1	inactive	inactive	inactive
CCCC#Cc1cnc2c(c1)C(=O)N([C@H](C)CO)C[C@@H](C)[C@@H](CN(C)S(=O)(=O)c1cn(C)cn1)O2	inactive	inactive	inactive
C[C@@H]1CN([C@@H](C)CO)C(=O)c2cc(NC(=O)Nc3ccc(C(F)(F)F)cc3)ccc2O[C@H]1CN(C)S(C)(=O)=O	inactive	inactive	inactive
C[C@@H]1CN([C@H](C)CO)C(=O)Cc2cc(NC(=O)CCCN(C)C)ccc2O[C@@H]1CN(C)S(=O)(=O)c1ccccc1	inactive	inactive	inactive
O=C(NCCO)c1cc2ccccc2oc1=O	inactive	inactive	inactive
C[C@@H]1CN([C@H](C)CO)C(=O)c2cc(NC(=O)Nc3ccc(C(F)(F)F)cc3)ccc2O[C@@H]1CN(C)Cc1ccccc1	inactive	active	inactive
CO[C@@H]1CN(C)C(=O)c2cc(NC(=O)c3nc4ccccc4s3)ccc2OC[C@@H](C)N(Cc2ccccc2)C[C@H]1C	inactive	inactive	inactive
C[C@@H]1CN([C@@H](C)CO)C(=O)CCCn2nncc2CO[C@@H]1CN(C)C(=O)Nc1ccc(N2CCCCC2)cc1	inactive	inactive	inactive
CO[C@@H]1CN(C)C(=O)c2ccc(NS(C)(=O)=O)cc2OC[C@H](C)N(C(=O)CN(C)C)C[C@H]1C	inactive	inactive	inactive
C[C@H]1CN([C@@H](C)CO)S(=O)(=O)c2ccc(C#CC3CC3)cc2O[C@H]1CN(C)Cc1ccc(F)cc1	inactive	inactive	inactive
C[C@@H]1CCCCO[C@H](CN(C)C(=O)Nc2ccc3c(c2)OCO3)[C@@H](C)CN([C@H](C)CO)C(=O)c2cc(NS(=O)(=O)c3ccc(F)cc3)ccc2O1	inactive	inactive	inactive
CC(C)N1CC=C[C@@]23O[C@@H]4/C=C\CCCOC(=O)[C@@H]4[C@H]2C(=O)N(CCCO)[C@@H]3C1=O	inactive	inactive	inactive
C[C@@H]1CN([C@H](C)CO)C(=O)c2c(c3ccccc3n2C)-c2ccccc2CO[C@H]1CN(C)Cc1ccc(Oc2ccccc2)cc1	inactive	inactive	inactive
C[C@@H]1CN([C@H](C)CO)C(=O)c2cc(NC(=O)CCN3CCOCC3)ccc2O[C@H]1CN(C)S(=O)(=O)c1cccs1	inactive	inactive	inactive
CN(C)CCCCSC(=N)N	inactive	inactive	inactive
O=C(C[C@@H]1C[C@@H]2c3cc(NC(=O)Nc4ccccc4)ccc3O[C@@H]2[C@@H](CO)O1)NCCN1CCCCC1	inactive	inactive	inactive

From the antibiotic and cytotoxicity screens of Wong et al. (2023)
